Data published in paper PMC4336329 (PLoS ONE, 2015).
The whole screen tested about 310,000 compounds, of which about 2,200 (0.71%) showed an effect of 50% or more. Effects have a minus sign here. The list shows a part of the results.

What follows are compounds tested against human ether-à-go-go-related gene (hERG) potassium channel (human, UniProt Q12809) (assay: primary screen, population patch clamp on CHO cells stably expressing hERG).
human ether-à-go-go-related gene (hERG) potassium channel, sequence (Q12809 whole entry, looked up): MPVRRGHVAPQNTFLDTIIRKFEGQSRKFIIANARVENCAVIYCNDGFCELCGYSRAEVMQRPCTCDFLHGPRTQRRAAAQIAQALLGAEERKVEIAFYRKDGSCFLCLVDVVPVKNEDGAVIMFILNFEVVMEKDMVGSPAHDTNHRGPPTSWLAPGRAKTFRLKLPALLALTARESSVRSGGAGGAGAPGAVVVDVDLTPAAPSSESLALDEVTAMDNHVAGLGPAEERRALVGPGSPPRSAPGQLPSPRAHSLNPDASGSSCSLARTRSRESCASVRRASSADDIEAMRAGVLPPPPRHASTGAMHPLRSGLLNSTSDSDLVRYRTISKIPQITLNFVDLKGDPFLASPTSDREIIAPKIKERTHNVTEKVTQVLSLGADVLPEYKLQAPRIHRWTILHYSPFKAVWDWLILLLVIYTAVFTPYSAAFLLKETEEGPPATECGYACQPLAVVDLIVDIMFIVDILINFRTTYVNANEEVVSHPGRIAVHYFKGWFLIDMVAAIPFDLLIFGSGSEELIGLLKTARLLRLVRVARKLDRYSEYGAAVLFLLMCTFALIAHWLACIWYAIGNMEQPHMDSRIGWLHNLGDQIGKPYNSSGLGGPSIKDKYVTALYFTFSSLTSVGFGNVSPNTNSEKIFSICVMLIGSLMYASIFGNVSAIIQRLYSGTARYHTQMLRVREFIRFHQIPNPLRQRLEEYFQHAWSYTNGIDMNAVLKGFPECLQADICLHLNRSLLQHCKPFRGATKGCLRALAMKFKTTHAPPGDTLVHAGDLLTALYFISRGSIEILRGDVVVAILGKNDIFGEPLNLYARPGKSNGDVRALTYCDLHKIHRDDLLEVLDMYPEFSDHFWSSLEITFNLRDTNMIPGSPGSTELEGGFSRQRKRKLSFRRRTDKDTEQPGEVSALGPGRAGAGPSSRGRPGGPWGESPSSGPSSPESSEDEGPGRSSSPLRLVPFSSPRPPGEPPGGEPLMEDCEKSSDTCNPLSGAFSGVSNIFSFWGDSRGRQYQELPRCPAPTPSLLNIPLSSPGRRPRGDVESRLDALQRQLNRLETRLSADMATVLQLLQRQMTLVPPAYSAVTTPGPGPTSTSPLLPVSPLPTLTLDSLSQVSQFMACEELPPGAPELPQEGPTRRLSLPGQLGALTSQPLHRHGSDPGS

Structure (SMILES)	hERG current change (%, negative = inhibition) at 1uM [%]
Cc1csc(=O)n1CC(=O)OCC(=O)NNC(=O)c1ccc(Cl)cc1	11.5
Clc1cc(Cl)c(Cl)c(Cl)c1Cl	12
COc1ccc(C(=O)N2CCCC(c3nc(-c4ccc(C)o4)no3)C2)cc1OC (stereo not drawn)	2.41
CCC(=O)Nc1ccc(-c2nnc(SCC(=O)N3CCCCC3)n2C)cc1	6.91
O=C1CCN(Cc2ccccc2)CCN1CCO	19.9
O=C(N=NC(=O)c1ccc2c(O)n(CC3CCCO3)c(O)c2c1)c1cccnc1 (stereo not drawn)	5.68
CCOc1ccccc1-c1nnc(CS(=O)(=O)c2ccccc2)o1	-26.9
COCC(=O)Nc1nnc(SCC(=O)N2C(C)CCCC2C)s1 (stereo not drawn)	9.89
COc1ccc(OCCNC(=O)c2ccc(C)cc2)cc1	15.8
O=C(Cn1c(=O)oc2cc(S(=O)(=O)N3CCCC3)ccc21)NC1CCCc2ccccc21 (stereo not drawn)	6.47
Cc1ccc(NC(=O)C(=O)NCCOc2ccccc2Cl)cc1	13.9
COc1cc(-c2noc(-c3ccco3)n2)cc(OC)c1OC	9.92
Nc1nnc(-c2cc3ccccc3oc2=O)s1	12
O=C(Nc1cccc(C(F)(F)F)c1)C(Sc1cccc[n+]1[O-])c1ccccc1 (stereo not drawn)	4.74
COc1cccc(C(=O)N/N=C/c2ccc(OC3CSC3)cc2)c1	12.7
O=C(NCCCN1CCCCC1)C1CCC(CNS(=O)(=O)c2cccc3nsnc23)CC1 (stereo not drawn)	3.81
COCCn1nnnc1CN1C2CCCC1CC(NC(C)=O)C2 (stereo not drawn)	3.87
O=C1CC(C(=O)N2CCN(c3ccccn3)CC2)CN1Cc1ccccc1Cl (stereo not drawn)	-12.4
CCCCN(C)CCCNC(=O)c1cc(=O)[nH]c2ccc(S(=O)(=O)N3CCCCC3C)cc12 (stereo not drawn)	7.27
Cc1cc(NC(=O)CSCC(=O)Nc2ccc(Cl)c(C(F)(F)F)c2)no1	-0.128
Clc1cccc(Nc2c3c(nc4ncnn24)CCC3)c1	-10.1
Cc1ccc(N2C(=O)CC(N3CCN(c4ccccn4)CC3)C2=O)cc1 (stereo not drawn)	-8.68
Cc1[nH]c2ccc(C(=O)N3CCCCC3)cc2c1C	-9.5

Structure (SMILES)	hERG current change (%, negative = inhibition) at 1uM [%]
Cc1cc(NS(=O)(=O)c2ccc(NS(=O)(=O)c3ccc(Br)cc3)cc2)no1	6.95
CC(=O)c1ccc(Cc2ccc(C(C)=O)cc2)cc1	4.62
Cc1cc(C)n(CC(O)Cn2cnc3c2c(=O)n(C)c(=O)n3C)n1 (stereo not drawn)	-0.188
COc1ccccc1OCC(=O)N(Cc1nc(-c2ccccc2)no1)C1CCCCC1	17.8
O=C(Nc1ccc([N+](=O)[O-])cc1)Nc1ccc2c(c1)OCCO2	17.8
CCOC(=O)c1ccc(NC(=S)N2CCCC(C)C2)cc1 (stereo not drawn)	9.53
CC(=O)Cc1nsc(NC(=O)c2ccc(-c3cc(Cl)ccc3Cl)o2)n1	11
Cc1ccc(-n2cc[nH]c2=S)c(C)c1	13.3
CSc1nc(C)c(CCOC(=O)c2cccc(C)c2)c(=O)[nH]1	19.9
Cc1cc(C)c(OCC(O)CN2CCN(c3ccccn3)CC2)c(C)c1.Cl (stereo not drawn)	-15.1
CCn1c(SCC(=O)NC2CCCCC2)nnc1-c1cccnc1	17.1
Cc1cc(S(=O)(=O)NCC(c2ccc3c(c2)OCO3)N2CCOCC2)ccc1F (stereo not drawn)	4.01
COCn1c(-c2cccc(Br)c2)nc2ccccc21	-3.47
COc1cc(NC(=O)c2cc(-c3cccc(O)c3)on2)cc(OC)c1OC	-5.74
COc1ccc(NC(=O)C(CC(C)C)NC(=O)C2CCCCC2)c(OC)c1 (stereo not drawn)	2.66
O=C(CCc1ccc(S(=O)(=O)NC2CCCCC2)cc1)N(Cc1ccccc1)Cc1ccccc1	8.06
COc1cc(N=c2oc3c(C)ncc(CO)c3cc2C(N)=O)cc(OC)c1OC	5.57
CN(C)C1=NC[C@H](Cc2ccccc2)N1CCc1cccc(F)c1	-24.1
CNc1ccc(/C=C/C(=O)c2cccc3ccccc23)cc1[N+](=O)[O-]	7.91
CCOC(=O)c1c(C)nc2c(C#N)cnn2c1C	-28.5
CCn1nc(C)c(CN2CCc3c([nH]c4ccccc34)C2c2ccc(F)c(OC)c2)c1C (stereo not drawn)	-5.11
O=C(CSc1nc2ccccc2n1S(=O)(=O)c1cccc([N+](=O)[O-])c1)NCc1cccs1	10
